{"source": "the supplement of paper PMC8728848", "binders": {"B1": {"name": "SP16665A-bot-344-23-344 (Bacteroides ovatus) (protein)", "chain": "SDNEFPDFDYQTVYFANQYGLRTIELGESEFVDNTLDNQHKMVIKAAWGGGYTNRNNVVINFKVDESLCDNLYFKDTDQPLVPMPASYYTLASDRIAIPKGQIMAGVEVQLTDDFFADEKSISENYVIPLLMTNVQGADSILQGKPVVENPVLTNAGDWSILPQNFVLYAVKYVNPWHGEYLRRGIDHATVAGTSKDIIRHEQFVENDEVVNISTKSMKDNLLTLKTKDESGKDISYTVRLSFAEDGSCTVHSGSQNVVVSGSGKFVSKGEKNSLGGKDRNAIYLDYTVNLTDNNIQLATKDTLVLRTRNVYGGKSLEVVRK"}}, "experiment_in_all_cases": "glycan array binding signal (z-score within array); higher = stronger binding", "settings_in_all_cases": "glycan notation: IUPAC condensed, linker removed", "key": {"[1]": {"molecular_target": "Gal(b1-3)GlcNAc(b1-6)[Gal(b1-3)]GalNAc", "outline": "(§1)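 Columns mapping to the same glycan were averaged after glycan names were converted to IUPAC-condensed notation. The data come from 3228 arrays in the Consortium for Functional Glycomics database, limited to those with an available protein sequence. Binding is reported as a within-array Z-score averaged across arrays of one protein sequence and across linkers.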"}, "[2]": {"molecular_target": "Gal(b1-3)GlcNAc6S", "outline": "as §1"}, "[3]": {"molecular_target": "Gal(b1-3)[Fuc(a1-4)]GlcNAc", "outline": "as §1"}, "[4]": {"molecular_target": "Gal(b1-3)[Fuc(a1-4)]GlcNAc(b1-2)Man", "outline": "as §1"}, "[5]": {"molecular_target": "Gal(b1-3)[Fuc(a1-4)]GlcNAc(b1-2)Man(a1-3)[Gal(b1-3)[Fuc(a1-4)]GlcNAc(b1-2)Man(a1-6)]Man(b1-4)GlcNAc(b1-4)[Fuc(a1-6)]GlcNAc", "outline": "as §1"}, "[6]": {"molecular_target": "Gal(b1-3)[Fuc(a1-4)]GlcNAc(b1-3)Gal(b1-3)[Fuc(a1-4)]GlcNAc", "outline": "as §1"}, "[7]": {"molecular_target": "Gal(b1-3)[Fuc(a1-4)]GlcNAc(b1-3)Gal(b1-4)[Fuc(a1-3)]GlcNAc", "outline": "as §1"}, "[8]": {"molecular_target": "Gal(b1-3)[Fuc(a1-4)]GlcNAc(b1-6)GalNAc", "outline": "as §1"}, "[9]": {"molecular_target": "Gal(b1-3)[GlcNAc(b1-6)]GalNAc", "outline": "as §1"}, "[10]": {"molecular_target": "Gal(b1-3)[Neu5Ac(a2-6)]GalNAc", "outline": "as §1"}, "[11]": {"molecular_target": "Gal(b1-3)[Neu5Ac(a2-6)]GlcNAc(b1-4)Gal(b1-4)Glc", "outline": "as §1"}, "[12]": {"molecular_target": "Gal(b1-3)[Neu5Ac(b2-6)]GalNAc", "outline": "as §1"}, "[13]": {"molecular_target": "Gal(b1-4)Gal", "outline": "as §1"}, "[14]": {"molecular_target": "Gal(b1-4)GalNAc(a1-3)[Fuc(a1-2)]Gal(b1-4)GlcNAc", "outline": "as §1"}, "[15]": {"molecular_target": "Gal(b1-4)GalNAc(b1-3)[Fuc(a1-2)]Gal(b1-4)GlcNAc", "outline": "as §1"}, "[16]": {"molecular_target": "Gal(b1-4)Glc", "outline": "as §1"}, "[17]": {"molecular_target": "Gal(b1-4)Glc6S", "outline": "as §1"}, "[18]": {"molecular_target": "Gal(b1-4)GlcNAc", "outline": "as §1"}, "[19]": {"molecular_target": "Gal(b1-4)GlcNAc(a1-6)Gal(b1-4)GlcNAc", "outline": "as §1"}, "[20]": {"molecular_target": "Gal(b1-4)GlcNAc(b1-2)Man", "outline": "as §1"}, "[21]": {"molecular_target": "Gal(b1-4)GlcNAc(b1-2)Man(a1-3)Man(b1-4)GlcNAc(b1-4)GlcNAc", "outline": "as §1"}, "[22]": {"molecular_target": "Gal(b1-4)GlcNAc(b1-2)Man(a1-3)[Gal(b1-4)GlcNAc(b1-2)Man(a1-6)]Man(b1-4)GlcNAc(b1-4)GlcNAc", "outline": "as §1"}, "[23]": {"molecular_target": "Gal(b1-4)GlcNAc(b1-2)Man(a1-3)[Gal(b1-4)GlcNAc(b1-2)Man(a1-6)]Man(b1-4)GlcNAc(b1-4)[Fuc(a1-6)]GlcNAc", "outline": "as §1"}, "[24]": {"molecular_target": "Gal(b1-4)GlcNAc(b1-2)Man(a1-3)[Gal(b1-4)GlcNAc(b1-2)Man(a1-6)][Gal(b1-4)GlcNAc(b1-4)]Man(b1-4)GlcNAc(b1-4)[Fuc(a1-6)]GlcNAc", "outline": "as §1"}, "[25]": {"molecular_target": "Gal(b1-4)GlcNAc(b1-2)Man(a1-3)[Gal(b1-4)GlcNAc(b1-2)Man(a1-6)][GlcNAc(b1-4)]Man(b1-4)GlcNAc(b1-4)[Fuc(a1-6)]GlcNAc", "outline": "as §1"}, "[26]": {"molecular_target": "Gal(b1-4)GlcNAc(b1-2)Man(a1-3)[GlcNAc(b1-2)Man(a1-6)]Man(b1-4)GlcNAc(b1-4)GlcNAc", "outline": "as §1"}, "[27]": {"molecular_target": "Gal(b1-4)GlcNAc(b1-2)Man(a1-3)[GlcNAc(b1-4)][Gal(b1-4)GlcNAc(b1-2)Man(a1-6)]Man(b1-4)GlcNAc(b1-4)GlcNAc", "outline": "as §1"}, "[28]": {"molecular_target": "Gal(b1-4)GlcNAc(b1-2)Man(a1-3)[Man(a1-6)]Man(b1-4)GlcNAc(b1-4)GlcNAc", "outline": "as §1"}, "[29]": {"molecular_target": "Gal(b1-4)GlcNAc(b1-2)Man(a1-6)Man(b1-4)GlcNAc(b1-4)GlcNAc", "outline": "as §1"}, "[30]": {"molecular_target": "Gal(b1-4)GlcNAc(b1-2)Man(a1-6)[GlcNAc(b1-2)Man(a1-3)]Man(b1-4)GlcNAc(b1-4)GlcNAc", "outline": "as §1"}, "[31]": {"molecular_target": "Gal(b1-4)GlcNAc(b1-2)Man(a1-6)[Man(a1-3)]Man(b1-4)GlcNAc(b1-4)GlcNAc", "outline": "as §1"}, "[32]": {"molecular_target": "Gal(b1-4)GlcNAc(b1-2)[Gal(b1-4)GlcNAc(b1-4)]Man(a1-3)[Gal(b1-4)GlcNAc(b1-2)Man(a1-6)]Man(b1-4)GlcNAc(b1-4)GlcNAc", "outline": "as §1"}, "[33]": {"molecular_target": "Gal(b1-4)GlcNAc(b1-2)[Gal(b1-4)GlcNAc(b1-4)]Man(a1-3)[Gal(b1-4)GlcNAc(b1-2)[Gal(b1-4)GlcNAc(b1-6)]Man(a1-6)]Man(b1-4)GlcNAc(b1-4)GlcNAc", "outline": "as §1"}, "[34]": {"molecular_target": "Gal(b1-4)GlcNAc(b1-2)[Gal(b1-4)GlcNAc(b1-4)]Man(a1-3)[GlcNAc(b1-4)][Gal(b1-4)GlcNAc(b1-2)Man(a1-6)]Man(b1-4)GlcNAc(b1-4)GlcNAc", "outline": "as §1"}, "[35]": {"molecular_target": "Gal(b1-4)GlcNAc(b1-2)[Gal(b1-4)GlcNAc(b1-4)]Man(a1-3)[GlcNAc(b1-4)][Gal(b1-4)GlcNAc(b1-2)[Gal(b1-4)GlcNAc(b1-6)]Man(a1-6)]Man(b1-4)GlcNAc(b1-4)GlcNAc", "outline": "as §1"}, "[36]": {"molecular_target": "Gal(b1-4)GlcNAc(b1-2)[Gal(b1-4)GlcNAc(b1-6)]Man(a1-6)[Gal(b1-4)GlcNAc(b1-2)Man(a1-3)]Man(b1-4)GlcNAc(b1-4)GlcNAc", "outline": "as §1"}, "[37]": {"molecular_target": "Gal(b1-4)GlcNAc(b1-2)[Gal(b1-4)GlcNAc(b1-6)]Man(a1-6)[Gal(b1-4)GlcNAc(b1-2)Man(a1-3)]Man(b1-4)GlcNAc(b1-4)[Fuc(a1-6)]GlcNAc", "outline": "as §1"}}, "note": "The list shows a part of the results."}
{"binder": "B1", "values": [{"measurement": "glycan array binding signal (z-score)", "setting": "[1]", "value": -0.274}, {"measurement": "glycan array binding signal (z-score)", "setting": "[2]", "value": -0.287}, {"measurement": "glycan array binding signal (z-score)", "setting": "[3]", "value": -0.203}, {"measurement": "glycan array binding signal (z-score)", "setting": "[4]", "value": 0.303}, {"measurement": "glycan array binding signal (z-score)", "setting": "[5]", "value": 0.611}, {"measurement": "glycan array binding signal (z-score)", "setting": "[6]", "value": -0.08}, {"measurement": "glycan array binding signal (z-score)", "setting": "[7]", "value": -0.228}, {"measurement": "glycan array binding signal (z-score)", "setting": "[8]", "value": 0.189}, {"measurement": "glycan array binding signal (z-score)", "setting": "[9]", "value": -0.316}, {"measurement": "glycan array binding signal (z-score)", "setting": "[10]", "value": -0.201}, {"measurement": "glycan array binding signal (z-score)", "setting": "[11]", "value": 0.766}, {"measurement": "glycan array binding signal (z-score)", "setting": "[12]", "value": -0.06}, {"measurement": "glycan array binding signal (z-score)", "setting": "[13]", "value": -0.339}, {"measurement": "glycan array binding signal (z-score)", "setting": "[14]", "value": -0.475}, {"measurement": "glycan array binding signal (z-score)", "setting": "[15]", "value": -0.312}, {"measurement": "glycan array binding signal (z-score)", "setting": "[16]", "value": -0.451}, {"measurement": "glycan array binding signal (z-score)", "setting": "[17]", "value": 0.631}, {"measurement": "glycan array binding signal (z-score)", "setting": "[18]", "value": -0.185}, {"measurement": "glycan array binding signal (z-score)", "setting": "[19]", "value": -0.497}, {"measurement": "glycan array binding signal (z-score)", "setting": "[20]", "value": 1.02}, {"measurement": "glycan array binding signal (z-score)", "setting": "[21]", "value": -0.191}, {"measurement": "glycan array binding signal (z-score)", "setting": "[22]", "value": -0.394}, {"measurement": "glycan array binding signal (z-score)", "setting": "[23]", "value": -0.014}, {"measurement": "glycan array binding signal (z-score)", "setting": "[24]", "value": -0.393}, {"measurement": "glycan array binding signal (z-score)", "setting": "[25]", "value": -0.323}, {"measurement": "glycan array binding signal (z-score)", "setting": "[26]", "value": -0.46}, {"measurement": "glycan array binding signal (z-score)", "setting": "[27]", "value": -0.183}, {"measurement": "glycan array binding signal (z-score)", "setting": "[28]", "value": -0.153}, {"measurement": "glycan array binding signal (z-score)", "setting": "[29]", "value": -0.545}, {"measurement": "glycan array binding signal (z-score)", "setting": "[30]", "value": -0.093}, {"measurement": "glycan array binding signal (z-score)", "setting": "[31]", "value": 0.225}, {"measurement": "glycan array binding signal (z-score)", "setting": "[32]", "value": -0.051}, {"measurement": "glycan array binding signal (z-score)", "setting": "[33]", "value": -0.036}, {"measurement": "glycan array binding signal (z-score)", "setting": "[34]", "value": -0.429}, {"measurement": "glycan array binding signal (z-score)", "setting": "[35]", "value": -0.651}, {"measurement": "glycan array binding signal (z-score)", "setting": "[36]", "value": 0.11}, {"measurement": "glycan array binding signal (z-score)", "setting": "[37]", "value": -0.254}]}
